Source: PubChem BioAssay AID504374 (National Center for Advancing Translational Sciences (NCATS), 2011)
Out of some 1,500 compounds screened, about 100 (6.7%) were called active. Inconclusive results (about 7%) are left out. Calls come from the whole dose curve; as a rule, active = well fitted inhibition curve with a large enough effect; inconclusive = small, poorly fitted or top-dose-only effect, or effect the other way; inactive = flat fitted curve, though single readings scatter. The list shows a part of the results.

Target: Runt-related transcription factor 1 (Homo sapiens) + Core-binding factor subunit beta (Homo sapiens) (UniProt Q01196+Q13951)
Chain of UniProt Q01196 (Q01196 whole entry, looked up): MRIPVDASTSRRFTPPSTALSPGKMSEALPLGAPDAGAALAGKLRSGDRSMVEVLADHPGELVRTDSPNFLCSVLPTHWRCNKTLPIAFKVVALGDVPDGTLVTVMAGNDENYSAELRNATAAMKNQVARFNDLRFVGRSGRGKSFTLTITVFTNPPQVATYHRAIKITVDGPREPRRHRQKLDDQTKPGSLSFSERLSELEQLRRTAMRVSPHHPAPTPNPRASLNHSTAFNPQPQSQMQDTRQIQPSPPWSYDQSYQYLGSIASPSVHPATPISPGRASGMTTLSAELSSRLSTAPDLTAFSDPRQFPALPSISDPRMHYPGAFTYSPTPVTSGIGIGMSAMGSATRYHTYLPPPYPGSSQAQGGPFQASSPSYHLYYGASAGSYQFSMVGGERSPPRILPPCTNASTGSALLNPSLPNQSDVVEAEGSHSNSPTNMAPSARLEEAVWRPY
Chain of UniProt Q01196 (Q13951 whole entry, looked up): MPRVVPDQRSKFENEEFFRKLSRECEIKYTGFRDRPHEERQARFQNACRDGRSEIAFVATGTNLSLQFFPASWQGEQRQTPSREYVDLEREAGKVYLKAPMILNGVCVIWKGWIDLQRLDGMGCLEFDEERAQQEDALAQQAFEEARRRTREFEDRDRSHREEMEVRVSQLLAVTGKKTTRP
Experiment: qHTS Assay for Compounds Blocking the Interaction Between CBF-beta and RUNX1 for the Treatment of Acute Myeloid Leukemia: Hit Validation; note: nearly all actives have a fitted effect of over 60% in size
Settings: AlphaScreen CBFb-His/RUNX1-biotin binding; series mostly up to 59.8 µM; activity, negative = inhibition: at the top concentration
How it was run: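 AlphaScreen proximity assay: His-tagged CBF-beta and biotinylated RUNX1 (30 nM each) preincubated 20 min, then compound 15 min, then nickel and streptavidin beads 90 min, all at room temperature; signal read at […]em 440 nm.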
% is set by controls: 0 for no effect and ±100 for the full control effect; potency is the fitted concentration of half-maximal effect.

SMILES	activity, negative = inhibition	Potency
Cc1ccc2cc(NC(=O)Cc3ccccc3)ccc2n1	inactive: 1.09%	
CCOP(=O)(c1ccc(N(C)C)cc1)C(O)c1cccnc1 (stereo unspecified)	inactive: -3.85%	
O=C1CCC(c2ccccc2)(c2ccccc2)CC1	inactive: 2.46%	
Nn1c(SCC(=O)Nc2ccc(S(N)(=O)=O)cc2)nnc1C(F)(F)F	inactive: 4.8%	
Cc1nc(SCc2cccc(F)c2)c2oc3ccccc3c2n1	inactive: 4.51%	
O=C(CN1CCN(C(c2ccccc2)c2ccccc2)CC1)N1N=CCC1c1ccccc1 (stereo unspecified)	inactive: -5.94%	
COc1cccc(N/C(=N/C(=S)Nc2ccc(C)cc2C)Nc2nc(C)cc(C)n2)c1	inactive: -8.33%	
Cc1nn2c(NCCCN(C)C)c3c(nc2c1-c1ccccc1)CCCC3	inactive: -5.29%	
CCCN(CCC)CC(=O)N1CC(=O)Nc2ccccc21	inactive: -3.26%	
COC(=O)c1sccc1NC(=O)CC1C(=O)NCCN1C(=O)c1ccc(C)c(C)c1 (stereo unspecified)	inactive: -1.81%	
O=C(Oc1cc(=O)oc2c1c(=O)n1c3c(cccc23)CC1)c1ccc(F)cc1	inactive: -3.29%	
CCC(C)NC(=O)CC(C)C (stereo unspecified)	inactive: -11.8%	
O=C(c1ccc(Cn2cc(Cl)c([N+](=O)[O-])n2)cc1)N1CCN(Cc2ccccc2)CC1	inactive: -5.87%	
Nc1ccc(C(=O)Nc2ccc(Nc3ccncc3)cc2)cc1	inactive: -7.6%	
c1ccc(-n2ncc3cccnc32)cc1	inactive: 8.29%	
COc1ccc(-c2nnc(SCC(=O)N/N=C/c3ccccc3C(=O)O)n2-c2ccc(Cl)cc2)cc1	inactive: 0.903%	
CC12CCC(C/C1=N\OC(=O)c1c(F)cccc1F)C2(C)C (stereo unspecified)	inactive: 1.96%	
O=C(Nc1ccc2ccccc2c1)c1cccc(F)c1	inactive: 1.18%	
Cc1ccc(/C=N/N2CCN(c3ccccn3)CC2)o1	inactive: -6.58%	
CCNC(=O)Oc1ccc[nH]c1=O	inactive: 4.28%	
N#C/C(=C\c1ccc(OC(=O)c2ccccn2)cc1)C(N)=O		active: 4.34 µM
COc1cccc(/C=C2\SC(=S)N(C(C(=O)O)c3ccccc3)C2=O)c1OC (stereo unspecified)	inactive: 0.937%	
CCCc1ccc(C(=O)NC(=O)c2ccccc2O)cc1	inactive: -5.21%	
COC(=O)c1ccc(COc2ccc(C)cc2[N+](=O)[O-])o1	inactive: 9.46%	

SMILES	activity, negative = inhibition	Potency
CCOC(=O)c1cn[nH]c1NC(=S)Nc1ccc(OC)cc1	inactive: 12.7%	
Cc1nn2c(NCc3ccccn3)cc(C(C)C)nc2c1-c1ccccc1	inactive: 1.61%	
COc1ccccc1OCc1ccc(C(=O)NN)o1	inactive: -13.3%	
O=C1COc2ccc(C(=O)CSc3ccccc3C(=O)O)cc2N1	inactive: 10.8%	
Cc1ccc(OCc2ccc(C(=O)NN)o2)cc1C	inactive: 2.41%	
Nc1cc(Cl)nnc1Cl	inactive: -2.32%	
CC(C)CCN1NC2(CCCC(C)C2)NC1=S (stereo unspecified)	inactive: -10.9%	
Cc1nn2c(NCCN(C)C)c3c(nc2c1-c1ccccc1)CCCC3	inactive: 6.23%	
CCn1cc(C(c2ccccc2)C(C(C)=O)[N+](=O)[O-])c2ccccc21 (stereo unspecified)	inactive: -2.5%	
O=C(O)CCNC(=O)CCCn1nnc2ccccc2c1=O	inactive: -5.68%	
O=S(=O)(c1ccc(F)cc1F)N1CCCN(c2ccc(C(F)(F)F)cn2)CC1	inactive: -2.34%	
CCOC(=O)N1CCC(NS(=O)(=O)c2ccc(C)cc2)CC1	inactive: 1.85%	
C/C(=N/NC(=O)CNC(=O)Cc1ccccc1)c1ccc(Cl)cc1	inactive: -14.4%	
CC(C)N(CCn1cnc2c([nH]c3ccccc32)c1=O)C(C)C	inactive: 1.42%	
S=C(N/N=C/c1cccc2ccccc12)Nc1cccc(Cl)c1	inactive: -12.9%	
COCCn1c(-c2ccc(Br)cc2)nc2oc3cc(OC)ccc3c(=O)c2c1=O	inactive: -5.69%	
CCn1c(SCC(=O)N/N=C/c2ccncc2)nc2ccccc21	inactive: 1.76%	
COc1ccc(C(=O)O)nc1C	inactive: -29.3%	
Cc1sc2nc(COC(=O)c3ccc(Cl)c(N)c3)[nH]c(=O)c2c1C	inactive: 8.4%	
Cc1nn(C)cc1/C=N/NC(=O)c1ccco1	inactive: -3.8%	
Cc1ccc(N=CC2=C(O)CC(c3ccccc3Cl)CC2=O)cc1 (stereo unspecified)	inactive: 3.29%	
CN(C)c1cc(-c2ccc(Br)cc2)oc(=O)c1Cl	inactive: -13%	
CN1c2ccccc2C(=O)/C(=C\Nc2ccc(F)cc2F)S1(=O)=O	inactive: -0.318%	
Cc1oc(S(=O)(=O)N2CCCC2)cc1C(=O)Nc1ccc(F)cc1	inactive: -4.36%	

SMILES	activity, negative = inhibition	Potency
O=C(CSc1nc2ccccc2n1Cc1ccccc1Cl)N/N=C/c1ccccc1C(=O)O	inactive: -18%	
O=C(NNC(=S)NC1CC2C=CC1C2)c1ccncc1 (stereo unspecified)	inactive: 8.75%	
O=C(Oc1c(-c2ccccc2)c(=O)n2c3c(cccc13)CC2)c1ccc(Cl)cc1	inactive: -18.5%	
CCOC(=O)[C@H](CCc1ccccc1)N[C@@H](C)C(=O)N1[C@H](C(=O)O)C[C@H]2CCCC[C@@H]21	inactive: -20.1%	
Cc1nc2ccccc2nc1N1CCCC1	inactive: 2.06%	
Cn1nccc1NS(=O)(=O)c1ccc(C(C)(C)C)cc1	inactive: -11%	
CCOC(=O)Cc1csc(NC(=O)Nc2cccc(OC)c2)n1	inactive: 6.65%	
CCOC(=O)C1CCCN(C(=O)c2csc(-c3ccc4c(c3)CCO4)n2)C1 (stereo unspecified)	inactive: -2.05%	
O=C(Nc1ccc(F)cc1F)Nc1csc2ccccc12	inactive: -20.1%	
Cc1onc(-c2ccccc2)c1C(=O)Oc1ccccc1	inactive: 14.2%	
CCCc1c(NC(=O)Nc2ccc(F)cc2)cnn1-c1ccc(Cl)cc1	inactive: -1.45%	
COc1ccccc1N1CC(C)(C)C(=O)N(C(=O)c2ccc(Cl)cc2)C1=S	inactive: -3.81%	
N#Cc1c(N)nc2c(c1-c1ccc(F)cc1)CCC2	inactive: 5.26%	
CC1CC(C)(C)OC(C[N+]2(C)CCCCC2)O1 (stereo unspecified)	inactive: -0.393%	
Cc1cc(C)cc(OCc2ccc(C(=O)NN)o2)c1	inactive: -8.38%	
Cc1nc(-c2ccc(S(=O)(=O)N3CCN(CCc4ccccc4)CC3)s2)cs1	inactive: -2.36%	
NCC(=O)c1cccc2ccc[n+]([O-])c12	inactive: -3.82%	
CC1(c2ccccc2)O[C@@H]2C[C@H]3[C@@H]4CCC5=CC(=O)C=C[C@]5(C)[C@@]4(F)[C@@H](O)C[C@]3(C)[C@]2(C(=O)CO)O1 (stereo partly specified)	inactive: -1.17%	
CCN(CC)S(=O)(=O)c1ccc(/C=C/C(=O)Nc2ccc(N3CCOCC3)cc2)cc1	inactive: 3.47%	
O=C(O)c1cnc2[nH]c3ccccc3n2c1=O	inactive: -12%	
CN1c2ccccc2C(=O)/C(=C\Nc2ccc(F)cc2)S1(=O)=O	inactive: -5.52%	
COc1cc(/C=N/n2c(-c3ccccc3)n[nH]c2=S)cc(OC)c1O	inactive: -4.33%	
CCOC(=O)N1CCC(NC(=O)CCCC(=O)O)CC1	inactive: 6.93%	
Cc1nn(Cc2ccc(C(=O)NN)cc2)c(C)c1Cl	inactive: 1.73%	

SMILES	activity, negative = inhibition	Potency
COC(=O)CSc1ncnc2c(C)csc12	inactive: 1.12%	
CC(C)(C)c1csc(Sc2ncccc2[N+](=O)[O-])n1	inactive: -14.6%	
Cc1cccc(-c2n[nH]c(=S)n2/N=C/c2cccs2)c1	inactive: -7.44%	
O=C(NNc1c(Cl)cc(Cl)cc1Cl)c1n[nH]c(=O)c2ccccc12	inactive: -8.23%	
Cc1cccc(NC(=S)NNC(=O)c2cccc([N+](=O)[O-])c2)c1	inactive: -10.7%	
C=C(C)C(=O)Nc1cccnc1Oc1ccc(F)cc1F	inactive: -0.381%	
CCCCC(=O)Nc1ccc2c(c1)nc1n2CCN(CCOC)C1	inactive: -4.29%	
S=c1[nH]nc(Nc2cccc3ccccc23)s1	inactive: -14.2%	
Cc1ccc(C)c(N2CCN(c3ccncc3N)CC2)c1	inactive: -11.1%	
O=C(Nc1ccc2[nH]ccc2c1)c1ccccc1	inactive: -1.7%	
CC1=CC(=O)C(C(C)=Nc2ccccc2Cl)C(=O)O1 (stereo unspecified)	inactive: 1.35%	
CCOC(=O)c1cc(-c2ccc(OC)cc2)nn1-c1ccccc1C(=O)O	inactive: -6.9%	
CN(c1ccccc1)c1nc(N)c([N+](=O)[O-])c(N2CCCCC2)n1	inactive: -23.2%	
O=C(O)C1CCC(=O)N1C(=O)OCc1ccccc1 (stereo unspecified)	inactive: 5.71%	
COc1cc(/C=C/c2nc3ccc([N+](=O)[O-])cc3s2)ccc1OCC(=O)O	inactive: -2.63%	
COc1ccc(N/C=C2\C(=O)c3c(sc(C)c3C)N(C)S2(=O)=O)cc1	inactive: 1.6%	
CC(C)(C)C(=O)Nc1ccccc1C(=O)NCc1cccnc1	inactive: -1.01%	
CCOC(=O)CN(C(=O)c1ccccc1[N+](=O)[O-])C(C)(C)C	inactive: 0.764%	
COCCCn1c(=O)/c(=C\c2ccccc2OC(C)C)s/c1=C(/C#N)C(=O)Nc1ccc(C(=O)O)cc1	inactive: -12.4%	
Cn1c(=O)c2c(ncn2CC(=O)N/N=C/C=C/c2ccco2)n(C)c1=O	inactive: 2.56%	
Cc1cc(-c2ccccc2C(=O)Nc2ccccc2O)on1	inactive: -7.53%	
N#Cc1ccc(C(c2ccc(C#N)cc2)n2cncn2)cc1	inactive: -16.8% [at 32.1 µM]	
COC(=O)Cc1[nH]c(Cl)nc1C(N)=O	inactive: -1.61%	
COc1ccccc1/C=C/C=NC1C(=O)N(c2ccccc2)[N+](C)=C1C (stereo unspecified)	inactive: 1.83%	

SMILES	activity, negative = inhibition	Potency
CN1CCN(c2nc3ccccn3c(=O)c2/C=C(\C#N)S(=O)(=O)c2ccccc2)CC1	inactive: 5.7%	
CC(=O)c1cnn(-c2ccc(Cl)c(Cl)c2Cl)c1C	inactive: -3.5%	
CC(C)(C)c1cc(NCc2ccccn2)n2ncc(-c3ccccc3)c2n1	inactive: 2.5%	
O=c1c2cc(-c3ccccc3)sc2nc2n1N=C(c1cccs1)CS2	inactive: -15.6%	
CC(=O)C1=C(C)OC(N)=C(C#N)C1c1cccc2ccccc12 (stereo unspecified)	inactive: -6.29%	
CC(C)(C)c1ccc(C(=O)Cn2nc(C(=O)O)c3ccccc3c2=O)cc1	inactive: -8.18%	
Cc1cccc(Nc2nc(N)nc(CCl)n2)c1	inactive: 3%	
Cc1nnsc1-c1nnc(SCC(=O)c2ccc(F)cc2)n1C1CC1	inactive: -1.16%	
O=C1Nc2ccccc2C1(O)Cc1ccccn1 (stereo unspecified)	inactive: -2.94%	
CCC1(C)N=C(N)Nc2nc3cc(C)c(C)cc3n21 (stereo unspecified)	inactive: -2.57%	
CC(=O)Oc1ccc(C(=O)Nc2cccc(-c3nnc(-c4ccco4)o3)c2)cc1	inactive: -1.5%	
Cc1onc(-c2c(F)cccc2Cl)c1C(=O)N1CCSCC1	inactive: -1.82%	
C=CCc1cc(Cl)ccc1OC(=O)Nc1cccc(Cl)c1	inactive: 0.381%	
N#Cc1c(-c2cccnc2)c2c([nH]c1=O)-c1ccccc1OC2	inactive: -1.28%	
CCOC(=O)C1CC(C)=C(C)CC1C(=O)O (stereo unspecified)	inactive: 6.48%	
O=C(O)/C=C/C(=O)Nc1ccc(N2CCOCC2)nc1N1CCOCC1	inactive: -5.08%	
Nc1cccnc1Oc1ccccc1F	inactive: -2.77%	
CC(=O)Nc1ccc(OCCOc2ccc([N+](=O)[O-])cc2)cc1	inactive: 0.185%	
O=C(O)/C=C/C(=O)Nc1ccc(OC(F)(F)F)cc1	inactive: -2.16%	
N#C/C(=C\c1cccnc1)c1ccc(Br)cc1	inactive: 3.21%	
